Measured values: the supplement of paper PMC3334620
Whole data set: some 33,000 sequences, median “E-score (-0.5 to 0.5)” near -0.017, cut for the highest 2% near 0.3. The list shows a part of the results.

Target: T1, Sut1 (UniProt P53032)
T1 sequence: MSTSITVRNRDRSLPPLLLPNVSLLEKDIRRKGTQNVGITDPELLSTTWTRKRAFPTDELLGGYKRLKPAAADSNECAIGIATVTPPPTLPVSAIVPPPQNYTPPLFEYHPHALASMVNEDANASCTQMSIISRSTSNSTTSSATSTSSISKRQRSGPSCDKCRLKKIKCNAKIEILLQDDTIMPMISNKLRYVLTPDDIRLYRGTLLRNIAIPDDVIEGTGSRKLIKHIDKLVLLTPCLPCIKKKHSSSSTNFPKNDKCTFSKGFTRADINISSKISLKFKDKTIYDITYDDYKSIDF
Assay: PBM E-score (8-mer binding enrichment) (E-score (-0.5 to 0.5)); higher = stronger / more preferred TF binding; most listed sequences are background and not binding sites
Settings: protein concentration: 200 nM; construct: GST-full length
Method in brief: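 E-scores (a modified Wilcoxon-Mann-Whitney statistic) were assigned by the Universal PBM Analysis Suite to every ungapped eight-base word pooled with its reverse complement. The input came from universal all-10-mer Agilent arrays made double-stranded by primer extension and probed with GST-tagged yeast transcription factors at about 100-200 nM. Fluorescent anti-GST detected bound protein, and masliner normalised the scans.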

| Sequence | PBM E-score |
| --- | --- |
| AAGGCGCC | -0.219 |
| CCAAGTCC | 0.276 |
| TCATGTCA | -0.0459 |
| TAAAGCCA | 0.0423 |
| GAGGCATC | -0.202 |
| AGACAGGA | 0.156 |
| CCGGGGGA | 0.0236 |
| ATGCAATG | -0.0495 |
| ATCGCTGC | -0.111 |
| AGTTTCGG | 0.249 |
| GAAACGCC | 0.0491 |
| TGCAGCAA | -0.0544 |
| AAGGGGCA | -0.185 |
| ACCCTACT | -0.263 |
| GGGGTTTA | 0.102 |
| CAGTTGCC | -0.0458 |
| GCACAACC | -0.0984 |
| CTGATCTC | 0.082 |
| CAAATCTC | 0.124 |
| AAATGGGT | 0.219 |
| ATTATGGA | 0.214 |
| CAAGCTGA | 0.0467 |
| GATGTTGA | 0.0736 |
| CCCTGTGC | -0.306 |
| CTTCCTTA | 0.0738 |

| Sequence | PBM E-score |
| --- | --- |
| ACACTCCG | 0.438 |
| CAGAGTGA | -0.135 |
| AGGATGGC | -0.132 |
| CTCATTGA | -0.189 |
| AAGACCAC | -0.181 |
| AACTCGAT | 0.192 |
| ATAAGATA | 0.24 |
| CAGTGTGC | -0.217 |
| AGCAGCTG | -0.0107 |
| CGAGAGTA | 0.0941 |
| AGTATAAG | 0.157 |
| CGACAGTC | -0.209 |
| GTAGGCGA | -0.0513 |
| AAACCGTT | 0.0182 |
| GTAGCCAA | -0.0559 |
| CGCTGGCC | -0.311 |
| CCAGAGAG | -0.22 |
| AATCACCG | -0.0218 |
| TGCCGAAA | 0.175 |
| CCGCTATA | -0.0131 |
| AATAGGAA | 0.178 |
| AGGCTATC | 0.0163 |
| GTACTCAA | 0.0674 |
| ACGTGGGA | -0.224 |
| AATTCGAT | 0.222 |

| Sequence | PBM E-score |
| --- | --- |
| AGAGGTTA | -0.104 |
| CCAGACGG | -0.108 |
| ACAACTCA | 0.13 |
| CGATGCCC | -0.206 |
| CGGTGCGA | -0.12 |
| AATTGGAA | 0.192 |
| ATTGGAGA | 0.0149 |
| AACAGGGT | -0.146 |
| CCCCTGCC | -0.305 |
| AACTACTG | 0.0566 |
| CACGAGTA | 0.009 |
| GGGGACAA | -0.0934 |
| TCACATGA | -0.156 |
| GAATACGA | 0.0862 |
| AGTTGCGC | -0.0632 |
| ATAGACAA | 0.11 |
| ATGGATAG | -0.118 |
| GGGGGTAA | -0.343 |
| GGGGGGGA | -0.466 |
| AAGTAACG | 0.218 |
| ACAGGGTA | -0.158 |
| AAGTTAGT | 0.165 |
| GATGAGGA | -0.0512 |
| TATAGACA | 0.136 |
| GTATGAAA | 0.221 |

| Sequence | PBM E-score |
| --- | --- |
| ATTCGAGC | 0.00401 |
| AGGCGTTC | -0.248 |
| GGATTGAA | 0.257 |
| CGCTGCCA | -0.0883 |
| AGCAGACG | -0.185 |
| ACGTTTAT | 0.0924 |
| CCACGATC | -0.00633 |
| GTCTTTGA | -0.0789 |
| CCTGCGGA | 0.105 |
| CAACATCA | 0.0607 |
| TAGGTACA | -0.0499 |
| CTCAAGTA | 0.0605 |
| ACCCCCCC | -0.42 |
| ACCCCGGC | 0.183 |
| CAGATACA | 0.223 |
| GATAACGC | 0.105 |
| AGGCCAGC | -0.255 |
| CGATAACG | 0.104 |
| CATGCATC | 0.154 |
| ACCAAAAT | 0.0417 |
| CTCCTACC | 0.111 |
| TACCCGTA | -0.0387 |
| ATATCGGA | 0.331 |
| CAGCCTGG | -0.158 |
| GTACGGAA | 0.22 |

| Sequence | PBM E-score |
| --- | --- |
| AGACTGTG | -0.283 |
| CTAATGTC | 0.0036 |
| CAAAAAGG | 0.00739 |
| AGTTGTTC | 0.244 |
| ATATCCGC | 0.171 |
| AGGCCATC | -0.149 |
| ATCAGCCA | -0.138 |
| TACGGGGA | -0.0333 |
| CGTTATAA | 0.135 |
| TCAGGTAA | -0.0276 |
| AGCAGTTC | 0.0132 |
| AAATGGAC | 0.23 |
| CGGTCAGA | -0.00289 |
| ATTAAAGC | 0.112 |
| TCACTCCA | -0.00881 |
| CAGCGCTC | -0.226 |
| CGCGTAAC | -0.0649 |
| CTTCGCGA | -0.141 |
| TCTTATAA | 0.2 |
| TCGGATAA | 0.318 |
| AAAAGGGT | 0.0354 |
| AGTCCCCA | -0.109 |
| ATCGCCGA | 0.0653 |
| CATTCGCC | -0.262 |
| AAAGATTT | 0.164 |

| Sequence | PBM E-score |
| --- | --- |
| CTCGGATC | 0.204 |
| AACAGACC | 0.103 |
| CAACTCTG | -0.157 |
| CGTTATCC | 0.138 |
| CCTGACCG | -0.157 |
| GTTCAGTA | -0.0889 |
| ACGCGGTA | -0.0143 |
| GCATATAC | -0.121 |
| CCGGTGCC | -0.0163 |
| ATGCCATC | 0.0993 |
| AACCCGGA | 0.333 |
| AGGCTGTG | -0.0562 |
| ACCTAGCC | -0.132 |
| GGGCAAAA | 0.0783 |
| ACGGGCAT | -0.19 |
| GAACGCTA | -0.0848 |
| GCAGGGAC | -0.237 |
| GCTAGAGC | -0.0744 |
| TACACCTA | 0.0806 |
| CATAGGCG | -0.309 |
| CCTTCCAA | 0.0242 |
| GTATAGCA | 0.174 |
| ATTGCTCC | 0.0554 |
| CAGTCCGG | 0.353 |
| CACAACAC | 0.0343 |

| Sequence | PBM E-score |
| --- | --- |
| AAATCATT | 0.22 |
| CTACGGTC | -0.0539 |
| CACAGTAC | -0.0582 |
| CTCCATTC | -0.0141 |
| AGAATCCC | 0.0785 |
| CTCGGGGC | 0.00548 |
| CCCTTTTC | -0.0793 |
| GATTCTGA | 0.0158 |
| ATCTTTAC | 0.125 |
| CAATACTG | -0.0987 |
| AACGTAAG | -0.0341 |
| CTTGCAGC | -0.0219 |
| GCGTACAC | -0.11 |
| ATCGGATG | 0.157 |
| CACCTACA | -0.188 |
| GCAAGCTA | -0.0635 |
| ATTAGATC | 0.0421 |
| AACTGACT | 0.0907 |
| ACCACAAG | -0.0669 |
| CGGTCCGC | 0.125 |
| ATTGCGTG | -0.0118 |
| ACGATCCG | 0.132 |
